# Reference: the supplement of paper PMC3334620
# Whole data set: some 33,000 sequences, median “E-score (-0.5 to 0.5)” near -0.021, cut for the highest 2% near 0.32. This is one part of the list.
# Target: T1, Zap1 (UniProt P47043)
# T1 sequence: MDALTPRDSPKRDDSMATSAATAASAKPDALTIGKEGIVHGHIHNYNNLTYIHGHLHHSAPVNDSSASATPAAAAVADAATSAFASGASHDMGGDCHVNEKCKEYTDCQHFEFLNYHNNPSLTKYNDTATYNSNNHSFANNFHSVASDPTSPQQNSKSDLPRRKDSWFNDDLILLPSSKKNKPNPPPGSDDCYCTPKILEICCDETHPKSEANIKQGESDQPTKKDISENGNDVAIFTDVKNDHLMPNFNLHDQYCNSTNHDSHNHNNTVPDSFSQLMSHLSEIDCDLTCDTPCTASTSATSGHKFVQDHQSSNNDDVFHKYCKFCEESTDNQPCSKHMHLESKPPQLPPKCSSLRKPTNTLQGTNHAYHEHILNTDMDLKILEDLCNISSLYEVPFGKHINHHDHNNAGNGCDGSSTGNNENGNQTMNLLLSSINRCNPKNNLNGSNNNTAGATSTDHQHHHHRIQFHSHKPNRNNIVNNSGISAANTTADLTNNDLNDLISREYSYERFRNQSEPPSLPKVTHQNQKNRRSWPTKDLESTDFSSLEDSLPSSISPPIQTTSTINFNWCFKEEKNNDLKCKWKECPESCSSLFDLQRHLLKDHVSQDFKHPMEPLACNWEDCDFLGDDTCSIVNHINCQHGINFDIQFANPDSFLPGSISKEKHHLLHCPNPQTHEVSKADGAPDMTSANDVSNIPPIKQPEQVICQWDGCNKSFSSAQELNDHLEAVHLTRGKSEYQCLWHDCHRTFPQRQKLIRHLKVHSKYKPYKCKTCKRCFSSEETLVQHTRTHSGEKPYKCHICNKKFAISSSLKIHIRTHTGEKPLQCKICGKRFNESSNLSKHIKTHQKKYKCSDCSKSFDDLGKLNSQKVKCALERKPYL
# Assay: PBM E-score (8-mer binding enrichment) (E-score (-0.5 to 0.5)); higher = stronger / more preferred TF binding; most listed sequences are background and not binding sites
# Conditions: protein concentration: 200 nM; construct: GST-full length
# Method: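 Universal 'all 10-mer' protein binding microarrays (Agilent AMADID 015681) probed with GST-tagged S. cerevisiae TFs (full-length or DBD) made by in vitro transcription/translation (PURExpress), about 100-200 nM. Bound TF was detected with fluorescent anti-GST. Each ungapped 8-mer (which stands for itself and its reverse complement) is scored by the PBM enrichment score (E-score), a modified Wilcoxon-Mann-Whitney statistic from -0.5 to +0.5, computed with the Universal PBM Analysis Suite. Scale: above 0.35 generally sequence-specific binding.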
row,Sequence,PBM E-score
1,CCGAATAA,0.201
2,CCACAAAG,0.34
3,GTACGCTA,-0.112
4,ACAGAAGA,-0.061
5,ACGGTGTG,-0.136
6,ACGATGGA,0.00241
7,AGGGGATG,-0.0219
8,AGATGCCG,-0.23
9,AAGTAGGC,-0.106
10,CGGAACCA,0.229
11,CGGCCCAA,0.0673
12,ATTGATGA,0.0238
13,GACTAGCC,-0.201
14,TTAGTAAA,0.0891
15,ACCGCGAG,0.284
16,CCCATGCA,-0.0459
17,TCTATAAA,0.166
18,CATCTTAC,-0.152
19,ACAACTAT,0.204
20,AGCATAGG,-0.184
21,ATAGTCGA,0.04
22,CGGATATC,0.0772
23,ACACTAGA,0.128
24,ATCAAGAT,-0.111
25,GGCCGATA,-0.0328

row,Sequence,PBM E-score
1,AGGGCTTC,-0.0391
2,ACAAGGGG,-0.128
3,TACTTTAA,0.00612
4,ACCTATCG,0.096
5,ATGGCTTA,-0.0746
6,TTCACGAA,-0.0117
7,CATTCCGG,-0.0375
8,CCAATATA,-0.204
9,CAGGCCCC,-0.242
10,GCCATTAC,0.233
11,GCTATAGC,-0.336
12,AAGCTAGG,-0.279
13,CAGCAATA,0.0305
14,CCCCAGTC,-0.237
15,GCTTGTTA,0.126
16,GCCCTTTA,-0.0495
17,ACCACCAT,0.195
18,AATAAGCT,-0.00782
19,GATTTAAA,-0.0992
20,CGTCTTGC,-0.0827
21,GCCAGCAC,-0.171
22,CGCACCCG,0.0874
23,TCGACGAA,-0.00492
24,TCCGGAAA,-0.0642
25,GTTAGGAA,0.168

row,Sequence,PBM E-score
1,ATGCCCGC,-0.0492
2,CACATGAG,-0.145
3,CGAGCGCA,-0.0559
4,CAACTACC,0.203
5,ACTTAAAC,0.122
6,TAGACGCA,-0.184
7,AGCGAGGA,-0.134
8,CATACGGA,-0.169
9,CATGAAAG,0.0835
10,CCGGGCGC,-0.315
11,AGGGCAAA,0.0585
12,GCTGCAAC,-0.0782
13,GCGCAAAC,-0.0236
14,ATGTGTTC,0.133
15,CCGGGCGA,-0.141
16,AGCGTCGC,-0.279
17,ATGACACG,-0.109
18,AAACCGAG,-0.135
19,AAGCAGGG,-0.179
20,AGGACGGA,-0.255
21,GCATAATA,0.171
22,GGTGGGGA,0.28
23,AAACTGTA,0.0773
24,ACAATTTG,-0.158
25,AGTGTAAT,-0.147

row,Sequence,PBM E-score
1,AAACGGCG,-0.0555
2,CACTAAAC,0.155
3,CTGTCCAC,-0.0437
4,CCACGAGG,0.3
5,AAATATAA,0.224
6,ACTACAGC,-0.193
7,AACACGCA,0.00642
8,CGTCTCCC,-0.218
9,AGACTTGA,-0.0479
10,GCATGCGC,-0.0204
11,AGTACAAT,0.101
12,CATGCCCC,-0.212
13,TGTTGGAA,0.135
14,GGCTCAAC,-0.116
15,CCCTTACG,-0.0713
16,CGTCTTAC,-0.00492
17,CCGAAATC,-0.0593
18,CATATCTA,-0.0118
19,TGTGCAAA,-0.0563
20,AGCGGGTA,0.149
21,ATCGCCTG,-0.251
22,CGGGCGAG,-0.0126
23,GCAGAGGC,-0.124
24,AAATAACG,0.042
25,AGACGCAA,0.0382

row,Sequence,PBM E-score
1,GGGCAGAA,0.0384
2,GGATGTAA,0.184
3,CACTTTAG,-0.0914
4,ATTGAGAC,0.203
5,GGATTCTA,-0.144
6,CTCGTAGC,-0.0655
7,ATCTGTTC,0.0409
8,ATATTTGC,0.0299
9,AGCAGATC,-0.0265
10,ATCGCAGG,-0.00676
11,GAGCGTGC,-0.173
12,CTATTTTA,0.0977
13,ATCGTTAA,0.0793
14,CCAACAAG,0.163
15,GTAATGTA,0.041
16,AGTGGTCC,-0.0628
17,CCTGGTAC,0.154
18,CGTTACAG,0.0324
19,GTTACACA,0.186
20,AGGGTTCA,0.146
21,ACTGTACT,-0.159
22,ATCATGTC,-0.062
23,ATAATAGG,0.121
24,CAGAGGGG,-0.159
25,CTCTATTA,-0.0398

row,Sequence,PBM E-score
1,AAGGCTAG,-0.0741
2,CGTTGGCC,-0.138
3,ACCCTGTA,0.353
4,TCGGGGAA,0.103
5,CCCACGAC,-0.0686
6,CGGGTTAG,0.0706
7,AATTGAGC,-0.172
8,CCAACTCC,0.0711
9,GGGAACAA,-0.0417
10,CTATTGGC,-0.193
11,CGAGGGAA,0.00282
12,GAGTGAGC,-0.193
13,AGTCCGCG,-0.0509
14,AAGGTCAG,0.32
15,GCGGAGCA,-0.249
16,AAGCACTC,-0.146
17,ACTCGTCT,0.0828
18,AATTTCAC,0.0163
19,ACATCTTA,0.0426
20,CGCATAGC,-0.28
21,ACACTGTC,-0.051
22,ACGAAGAT,-0.105
23,CCTACACG,-0.103
24,CCTTGCGC,-0.0353
25,ACAGCAGA,0.0639

row,Sequence,PBM E-score
1,CCAAAGGG,0.267
2,GGACATCC,-0.048
3,GCTTCCCA,-0.342
4,CTATCAAC,0.0502
5,TTAATGAA,0.187
6,CTATGCTA,0.0289
7,ATATCGAT,0.0694
8,AAAGCTTC,-0.0032
9,ATGTTGAC,0.0368
10,GAGTCTAC,-0.229
11,CAGGGGGA,-0.394
12,CAGTGCAA,-0.0222
13,GTTTCTAA,0.138
14,CAAATTTG,0.109
15,TACACCCA,0.0798
16,GGCGTTTA,-0.238
17,GTTTACTA,0.135
18,GTTGACGA,-0.038
19,CACCATAC,0.0636
20,ATAAATTA,0.197
21,ACCAGTCA,0.0553
22,CCAATCCC,-0.116
23,CAACTCTC,-0.119
24,CGTATGTC,-0.0622
25,ACTATCTC,-0.129

row,Sequence,PBM E-score
1,AAGTTAAC,0.247
2,AAATTGCA,0.0924
3,ATTGAGTC,0.00193
4,AGTTGTCC,0.132
5,GTCTACGA,-0.232
6,GTCTAACA,-0.0364
7,CGGAACGA,0.112
8,AGGACAAA,0.0742
9,GCGCGATA,0.0497
10,TGCAGAAA,0.0908
11,AAACCGCA,0.0339
12,GACCCTGA,0.304
13,TCGGGACA,-0.139
14,AGTAGGTG,0.0464
15,CATCTATC,-0.131
16,CACGTTCA,-0.127
17,CCCGGTTC,-0.0485
18,CCGGCTTA,0.0901
19,AAACCCGT,0.0781
20,CCCTACAG,0.046
21,GATTCAGA,-0.0457
22,ATCTTCAC,0.0626
23,ACGCTTCA,-0.268
24,ACATATGT,-0.329
25,AGCTCCCC,-0.306

row,Sequence,PBM E-score
1,CGATCTGA,-0.0395
2,ACAGCGGC,-0.148
3,ACGGTGTC,-0.00272
4,GACCGCTC,-0.0268
5,CTCTCCAG,-0.256
6,GAGAATTA,-0.0541
7,ACCTCCGG,0.228
8,AGAATCCA,0.0671
9,GTATGTTA,0.181
10,AAGATATT,0.0386
11,GATTAGTA,-0.0306
12,CGACTCGC,-0.219
13,GATTAATA,0.175
14,TAAAACAA,0.0846
15,GGGGAATA,-0.138
16,ATAACGAC,0.0214
17,ACCAGACC,0.201
18,CCAACGAC,-0.154
19,GTCTCAGA,-0.0264
